The results in this text go back to the antibiotic and cytotoxicity screens of Wong et al. (2023).

The other results are listed elsewhere or left out.

One assay deals with HSkMC. Kind of assay: cytotoxicity call (relative viability < 0.9). The note with it: 10 µM.
Another assay has as its system HepG2. Kind of assay: cytotoxicity call (relative viability < 0.9). The note with it: 10 µM.
A further assay deals with S. aureus RN4220. Kind of assay: growth inhibition call (relative growth <= 0.2). As to conditions: 50 µM.

In the case of `COCC#Cc1cnc2c(c1)C(=O)N([C@H](C)CO)C[C@@H](C)[C@@H](CN(C)S(=O)(=O)c1cccc(OC)c1)O2`, the cytotoxicity call in the assay with HSkMC and with HepG2 was “inactive” throughout. Also, the growth inhibition call in the assay with S. aureus RN4220 is “inactive”.
In the case of `CC(=O)N(C)C[C@H]1Oc2ncc(C#C[C@H](C)O)cc2C(=O)N([C@@H](C)CO)C[C@@H]1C`, the cytotoxicity call with HSkMC and in the assay on HepG2 was “inactive” throughout. In addition, the growth inhibition call in the assay on S. aureus RN4220 is “inactive”.
`C[C@@H]1CCCCO[C@@H](CN(C)Cc2ccc3c(c2)OCO3)[C@H](C)CN([C@@H](C)CO)C(=O)c2cc(NC(=O)NC3CCCCC3)ccc2O1`: the cytotoxicity call with HSkMC and in the assay on HepG2 was “inactive” throughout. The growth inhibition call with S. aureus RN4220 was “inactive”.
On to `C[C@@H]1CN([C@H](C)CO)C(=O)c2cccc(NC(=O)Nc3cccc4ccccc34)c2O[C@@H]1CN(C)Cc1ccc(Oc2ccccc2)cc1`, for which the cytotoxicity call in the assay on HSkMC and in the assay on HepG2 was “inactive” throughout. For the same compound, the growth inhibition call with S. aureus RN4220 is “inactive”.
For the compound `C[C@H]1CN([C@@H](C)CO)C(=O)c2cccc(NC(=O)C3CCCCC3)c2O[C@H]1CN(C)C(=O)Nc1cccc2ccccc12`, the cytotoxicity call in the assay with HSkMC and with HepG2 was “inactive” throughout. Also, in the assay on S. aureus RN4220, the growth inhibition call is “inactive”.
In the case of `C[C@@H]1CCCCO[C@@H](CN(C)CC2CC2)[C@H](C)CN([C@@H](C)CO)C(=O)c2cc(NC(=O)Nc3ccc4c(c3)OCO4)ccc2O1`, the cytotoxicity call in the assay on HSkMC and in the assay with HepG2 was “inactive” throughout. In the assay on S. aureus RN4220, the growth inhibition call was “inactive”.
Consider `C[C@H](CO)N1C[C@H](C)[C@@H](CN(C)Cc2ccc(C(=O)Nc3ccccc3N)cc2)Oc2ccc(NS(=O)(=O)c3ccc(Cl)cc3)cc2CC1=O`, for which the cytotoxicity call in the assay on HSkMC and with HepG2 was “inactive” throughout. In the assay with S. aureus RN4220, the growth inhibition call was “inactive”.
For `C[C@H]1CN([C@@H](C)CO)C(=O)c2c(c3ccccc3n2C)-c2ccccc2CO[C@H]1CN(C)S(=O)(=O)c1cn(C)cn1`, the cytotoxicity call in the assay on HSkMC and in the assay on HepG2 was “inactive” in each case. In addition, the growth inhibition call in the assay on S. aureus RN4220 was “inactive”.
Turning to `C=C(C)[C@@H]1CC[C@]2(C(=O)O)CC[C@]3(C)[C@H](CC[C@@H]4[C@@]5(C)CC[C@H](OC(=O)CC(C)(C)C(=O)O)C(C)(C)[C@@H]5CC[C@]43C)[C@@H]12`, the cytotoxicity call in the assay with HSkMC and in the assay on HepG2 was “inactive” each time. Besides, the growth inhibition call with S. aureus RN4220 was “inactive”.
`C[C@H](CO)N1C[C@H](C)[C@H](CN(C)S(=O)(=O)c2ccccc2)Oc2ccc(NS(=O)(=O)c3cn(C)cn3)cc2C1=O`: the cytotoxicity call with HSkMC and with HepG2 was “inactive” throughout. Moreover, the growth inhibition call in the assay on S. aureus RN4220 is “inactive”.
As to `C[C@@H]1CCCCO[C@@H](CN(C)C(=O)NC2CCCCC2)[C@H](C)CN([C@H](C)CO)C(=O)c2cc(NC(=O)Nc3ccc4c(c3)OCO4)ccc2O1`, the cytotoxicity call with HSkMC and in the assay with HepG2 was “inactive” each time. Also, in the assay on S. aureus RN4220, the growth inhibition call is “inactive”.
`Cc1ccc(-c2ccc3c(c2)O[C@@H](CN(C)C(=O)NC(C)C)[C@H](C)CN([C@H](C)CO)S3(=O)=O)cc1`: the cytotoxicity call with HSkMC and with HepG2 was “inactive” throughout. The growth inhibition call with S. aureus RN4220 is “inactive”.
`C[C@H](CO)N1C[C@H](C)[C@H](CN(C)S(=O)(=O)c2ccc(-c3ccccc3)cc2)OCc2cn(nn2)CCCC1=O`: the cytotoxicity call with HSkMC and in the assay on HepG2 was “inactive” in each case. The growth inhibition call in the assay with S. aureus RN4220 was “inactive”.
With `COc1ccc(S(=O)(=O)N(C)C[C@@H]2Oc3c(NC(=O)c4ccno4)cccc3C(=O)N([C@@H](C)CO)C[C@@H]2C)cc1`, the cytotoxicity call in the assay on HSkMC and in the assay with HepG2 was “inactive” throughout. The growth inhibition call in the assay on S. aureus RN4220 is “inactive”.
Consider `C[C@H]1CN([C@@H](C)CO)C(=O)c2cccc(NC(=O)C3CC3)c2O[C@@H]1CN(C)S(=O)(=O)c1ccc(F)cc1`, for which the cytotoxicity call in the assay with HSkMC and in the assay with HepG2 was “inactive” each time. For the same compound, the growth inhibition call in the assay on S. aureus RN4220 is “inactive”.
Take `C[C@@H]1CCCCO[C@@H](CN(C)C(=O)NC2CCCCC2)[C@@H](C)CN([C@@H](C)CO)C(=O)c2cc(NS(=O)(=O)c3cccs3)ccc2O1`: the cytotoxicity call in the assay on HSkMC and in the assay with HepG2 was “inactive” in each case. Also, the growth inhibition call in the assay with S. aureus RN4220 was “inactive”.
Turning to `COc1ccc([Si](C)(C)[C@H]2[C@H](CC(=O)N3Cc4ccccc4C[C@H]3CO)O[C@@]3(C(=O)N(C)c4c(Br)cc(C)cc43)[C@@H]2C)cc1`, in the assay on HSkMC, the cytotoxicity call was “active”. In the assay on HepG2, the cytotoxicity call was “inactive”. Moreover, the growth inhibition call with S. aureus RN4220 is “inactive”.
Consider `C[C@H](CO)N1C[C@H](C)[C@@H](CN(C)C(=O)Nc2ccnc(N3CCOCC3)c2)OCc2cn(nn2)CCCC1=O`, for which the cytotoxicity call in the assay on HSkMC and with HepG2 was “inactive” throughout. Moreover, the growth inhibition call in the assay on S. aureus RN4220 was “inactive”.
For `CC(C)=CC1C(C(=O)O)C1(C)C` (centres undefined), the cytotoxicity call with HSkMC and in the assay on HepG2 was “inactive” in each case. Besides, the growth inhibition call in the assay on S. aureus RN4220 was “inactive”.
For `C[C@H](CO)N1C[C@H](C)[C@@H](CN(C)Cc2ccc3c(c2)OCO3)Oc2ccc(NS(C)(=O)=O)cc2CC1=O`, the cytotoxicity call in the assay on HSkMC and in the assay with HepG2 was “inactive” each time. For the same compound, the growth inhibition call in the assay on S. aureus RN4220 was “inactive”.
For `C[C@@H]1CN([C@H](C)CO)C(=O)c2cc(C#CC3(O)CCCC3)cnc2O[C@H]1CN(C)C(=O)Cc1ccncc1`, the cytotoxicity call with HSkMC and in the assay with HepG2 was “inactive” each time. Moreover, the growth inhibition call in the assay with S. aureus RN4220 is “inactive”.
For the compound `C[C@@H]1CN([C@@H](C)CO)C(=O)c2cc(C#Cc3ccccc3)cnc2O[C@H]1CN(C)C(=O)CCN1CCCCC1`, the cytotoxicity call in the assay on HSkMC and in the assay with HepG2 was “inactive” in each case. The growth inhibition call in the assay on S. aureus RN4220 is “inactive”.
As to `C[C@@H]1CCCCO[C@H](CN(C)S(=O)(=O)c2ccc(F)cc2)[C@H](C)CN([C@@H](C)CO)C(=O)c2cc(NS(=O)(=O)c3cn(C)cn3)ccc2O1`, the cytotoxicity call in the assay on HSkMC and in the assay on HepG2 was “inactive” each time. In addition, the growth inhibition call with S. aureus RN4220 is “inactive”.
On to `C[C@H](CO)N1C[C@H](C)[C@H](CN(C)S(=O)(=O)c2ccc(F)cc2)Oc2ncc(C#Cc3ccc(F)cc3)cc2C1=O`, for which, in the assay on HSkMC (human skeletal muscle cells), the cytotoxicity call was “inactive”. The cytotoxicity call with HepG2 is “active”. The growth inhibition call in the assay with S. aureus RN4220 was “inactive”.
Regarding `COCC#Cc1ccc2c(c1)O[C@H](CN(C)C(=O)Nc1ccc(OC)cc1)[C@@H](C)CN([C@@H](C)CO)S2(=O)=O`, the cytotoxicity call with HSkMC and with HepG2 was “inactive” throughout. For the same compound, the growth inhibition call with S. aureus RN4220 is “inactive”.
For the compound `Cn1cnc(S(=O)(=O)N2C[C@@H](O)COC[C@H]3O[C@H](CC(=O)NC4CCCC4)CC[C@@H]32)c1`, the cytotoxicity call in the assay with HSkMC and in the assay on HepG2 was “inactive” in each case. Moreover, in the assay with S. aureus RN4220, the growth inhibition call was “inactive”.
For `C[C@H](CO)N1C[C@H](C)[C@@H](CN(C)Cc2cccc3c2OCCCO3)OCc2ccccc2-c2ccccc2C1=O`, the cytotoxicity call in the assay with HSkMC and with HepG2 was “inactive” in each case. The growth inhibition call in the assay with S. aureus RN4220 was “inactive”.
As to `COc1ccccc1NC(=O)N(C)C[C@@H]1Oc2ncc(C#CCN(C)C)cc2C(=O)N([C@@H](C)CO)C[C@H]1C`, the cytotoxicity call with HSkMC is “inactive”. Moreover, in the assay on HepG2, the cytotoxicity call is “active”. For the same compound, the growth inhibition call with S. aureus RN4220 is “inactive”.
